PubChem BioAssay AID485344 (National Center for Advancing Translational Sciences (NCATS), 2010)
Out of some 340,000 compounds screened, about 6,900 (2%) were called active. Rule as the data show it: active = inhibition above about 30%; inactive = below that, where a call was filed. The entries are a selection whose mix differs from that of the whole data set. Entries without a call were filed so in the source.

The molecules below were run against D(2) dopamine receptor (Homo sapiens) (UniProt P14416) (assay: HTS Assay for Allosteric Antagonists of the Human D2 Dopamine Receptor: Primary Screen for Antagonists). Settings: HEK293 TREx D2 cells, calcium flux, dopamine EC80; at 10 µM; stronger effect = higher value.
UniProt P14416, sequence (P14416 whole entry, looked up): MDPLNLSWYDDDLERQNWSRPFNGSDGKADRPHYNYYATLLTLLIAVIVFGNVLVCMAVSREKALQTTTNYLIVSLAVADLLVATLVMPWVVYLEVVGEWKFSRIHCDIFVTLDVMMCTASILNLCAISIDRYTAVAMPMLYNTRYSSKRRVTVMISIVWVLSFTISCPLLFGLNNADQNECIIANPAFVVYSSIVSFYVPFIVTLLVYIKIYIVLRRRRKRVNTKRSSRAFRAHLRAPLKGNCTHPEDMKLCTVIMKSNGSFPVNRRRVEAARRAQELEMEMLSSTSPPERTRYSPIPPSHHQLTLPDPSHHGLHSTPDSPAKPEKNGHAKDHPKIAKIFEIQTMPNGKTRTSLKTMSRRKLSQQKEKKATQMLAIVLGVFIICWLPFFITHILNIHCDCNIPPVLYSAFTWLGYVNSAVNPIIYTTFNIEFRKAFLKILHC
Method in brief: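 In this primary screen, negative modulation is detected by tracking calcium flux after an EC80 dopamine challenge in inducible HEK293 T-REx D2 cells preexposed to test compound for 180 s.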
Also: 0% is about no effect.

Row | Compound | inhibition
1 | CCc1cccc(C)c1Nc1c(-c2ccccc2)nc2sccn12 | 11.1%
2 | O=C(C1COc2ccccc2O1)N(Cc1cccnc1)c1nc2ccc(Cl)cc2s1 (configuration not stated) | -10.7%
3 | Cc1ccc(C#N)c(=O)n1CC(=O)Nc1ccccc1C(F)(F)F | -20.4%
4 | CSC1=NC2(CCN(C(=O)NC3CCCCC3)CC2)N=C1c1ccc(C)cc1 | -28.4%
5 | COc1ccc(N2Cc3cccc(C(=O)Nc4cc(C)cc(C)c4)c3C2=O)cc1 | 6.6%
6 | Cc1cc(F)ccc1NC(=O)CCS(=O)(=O)c1ccc2c(c1)CC(C)N2C(=O)C1CC1 (configuration not stated) | -4.03%
7 | NC(=O)C1CCN(C(=O)c2cccc(NC(=O)c3nsc4ccccc34)c2)CC1 | 12.6%
8 | Cc1noc(-c2ccc(-c3noc(-c4cccc(F)c4)n3)cc2)n1 | 2.23%
9 | O=C(C1COc2ccccc2O1)N1CCN(c2nc3ccc(F)cc3s2)CC1 (configuration not stated) | 10.6%
10 | O=C(COCc1cc(-c2ccc3c(c2)OCO3)on1)N1CCN(c2cccc(Cl)c2)CC1 | 3.29%
11 | O=c1cc(-c2ccccc2)nc(SCc2nc(-c3ccc(Cl)cc3)no2)[nH]1 | 3.18%
12 | Cc1ccc(S(=O)(=O)N(Cc2nc(-c3cccc(C)c3)no2)C2CCCCC2)cc1 | 3.56%
13 | CNS(=O)(=O)c1cn(CC(=O)N2CCN(c3cccc(C)c3C)CC2)cc1S(=O)(=O)NC | -5.18%
14 | CCCCn1c(SCC(=O)c2ccc(O)cc2O)nc2cc(S(N)(=O)=O)ccc21 | active: 31.6%
15 | CCN1CCN(C(=O)c2cnn(-c3cccc(Cl)c3)c2C2CCN(C(=O)OC(C)(C)C)CC2)CC1 | -2.07%
16 | Clc1ccc2c(c1)NC(c1ccncc1)=NC(c1cccs1)=N2 | 6.65%
17 | COc1cc(CNC(=O)c2ccc3nc(CCc4ccccc4)oc3c2)cc(OC)c1OC | 4.99%
18 | FC(F)(F)c1ccccc1CN1CCCC(N2CCN(c3ccccc3)CC2)C1 (configuration not stated) | active: 78.4%
19 | COC(=O)c1c(SC)nc2ccccc2c1OCc1ccc(Cl)cc1 | -4.65%
20 | O=c1c2cc3c(cc2n(Cc2ccc(F)cc2)c(=O)n1Cc1nc(-c2ccccc2)no1)OCO3 | 0.035%
21 | Cc1cccc(NC(=O)c2ccc3snnc3c2)c1C | -6.2%
22 | CC(=O)c1ccc2noc(-c3ccc(F)cc3)c2c1 | active: 34.4%
23 | Cc1cccc(NC(=O)c2cc3c(=O)n4cccc(C)c4nc3s2)c1C | -11.8%
24 | CC(C)CN(CCCNC(=O)CN1N=C(c2ccc(Cl)cc2)CCC1=O)CC(C)C | 16%
25 | CCCn1c(CNC(=O)c2ccc(F)cc2)nc2ccccc21 | -12.4%

Row | Compound | inhibition
26 | Cc1ccc2oc(-c3ccc(C)c(NC(=O)c4ccc(N5CCC(C)CC5)c([N+](=O)[O-])c4)c3)nc2c1 | -10.8%
27 | O=C(CCCN1C(=O)C(c2ccccc2)Oc2cccnc21)Nc1ccccc1C(F)(F)F (configuration not stated) | -24.5%
28 | CC(C)C(=O)Nc1ccccc1OCc1cc(=O)n2ccccc2n1 | -9.57%
29 | CCC(Oc1ccccc1F)C(=O)N1CCC(c2nc3ccccc3s2)CC1 (configuration not stated) | 3.14%
30 | COC(=O)C(CCSC)NC(=O)c1cc2c(n(-c3ccc(Cl)cc3)c1=O)CCCC2=O (configuration not stated) | 12.7%
31 | O=C(NC(=O)c1ccccc1)Nc1ccc(-c2cc(C(F)(F)F)nn2-c2ccccc2)cc1 | 5.4%
32 | CCOc1ccc(NC(=O)C2CCCN(c3ccc(Sc4ccc(C)cc4)nn3)C2)cc1 (configuration not stated) | 1.19%
33 | COc1ccc(Cl)cc1NC(=O)C1CCCN(c2ncnc3onc(C)c23)C1 (configuration not stated) | -1.38%
34 | CCOc1ccccc1CNC(=O)c1c(C)oc2ncnc(N3CCOCC3)c12 | -11.1%
35 | CCOc1ccc(NC(=O)CSc2ccc(-c3sc(-c4ccccc4)nc3C)nn2)cc1 | 10.6%
36 | CN(CC1CCN(CCc2cccc(C(F)(F)F)c2)CC1)C(=O)c1ccc(F)cc1 | active: 58.3%
37 | CCOC(=O)c1oc2ccc(S(=O)(=O)n3nc(-c4cc(OC)c(OC)c(OC)c4)cc3N)cc2c1C | 11.3%
38 | CC1CCN(CCc2nc3cc(NS(=O)(=O)c4ccccc4)ccc3n2C)CC1 | active: 30.3%
39 | Cc1ccccc1C(=O)NC1(C(F)(F)F)N=C(c2ccccc2)N(C2CCCCC2)C1=O (configuration not stated) | 0.164%
40 | Cc1ccccc1-c1nc(CN(Cc2c(C)nn(C)c2C)C2CC2)c(C)o1 | active: 30.5%
41 | COC(=O)c1ccc(C(=O)OC)c(NC(=O)CSCc2ccccc2Br)c1 | active: 44.5%
42 | Cc1ccc(C)c(S(=O)(=O)c2nnn3c2nc(NC(C)C)c2sccc23)c1 | 9.05%
43 | O=C(O)c1ccc2nc(-c3cc4cccc(O)c4oc3=O)[nH]c2c1 | 14.6%
44 | NS(=O)(=O)c1ccc(NC(=O)CN2C(=O)COc3ccc(Cl)cc32)cc1 | 0.616%
45 | CCc1ccccc1Nc1nn2c(=O)c3ccc(C(=O)NCc4ccccc4OC)cc3nc2s1 | 4%
46 | CCOC(=O)c1c(C)[nH]c(C)c1S(=O)(=O)N1CCCC(C(=O)Nc2ccc(C)cn2)C1 (configuration not stated) | -0.981%
47 | CCOc1ccc(Nc2ncnc3c2nc2n3CCCC2)cc1 | 9.97%
48 | COc1ccccc1Cn1cc(C(=O)c2ccc(C)cc2)c(=O)c2cc(C)ccc21 | 10.7%
49 | Cc1ccc(-n2nc(CO)c(C(=O)NCCCc3ccccc3)n2)cc1C | 2.41%
50 | COc1ccccc1CCNC(=O)C1CCN(c2nnc(-n3cccc3CNc3ccc(C)cc3)s2)CC1 | -2.53%

Row | Compound | inhibition
51 | Cc1c(C(=O)N(Cc2ccc(N(C)C)cc2)CC2CCCO2)oc2ccc(Cl)cc12 (configuration not stated) | -5.27%
52 | CCOc1ccc(Nc2nc3cc(Cl)c(Cl)cc3nc2-n2nc(C)cc2C)cc1 | 10.5%
53 | COc1ccc(Cl)cc1NC(=O)c1cn(C2CCCCC2)c(=O)c2c1c1ccccc1n2C | 3.21%
54 | COc1ccc(-c2nc(CS(=O)(=O)CC(=O)NCc3cccc(F)c3)c(C)o2)cc1 | active: 54.3%
55 | COc1ccc(N2CCN(c3csc4ccc(Cl)cc4c3=O)CC2)cc1 | 14.1%
56 | O=C(O)Cc1ccc(NC2(c3ccccc3)C(=O)c3ccccc3C2=O)cc1 | 3.46%
57 | COC(=O)c1ccccc1NC(=O)C1=C(C)C(=O)OC12CCCCCC2 | 18%
58 | COc1ccc(C(=O)Nc2ccccc2SCc2cc(=O)c3cccc(C)c3[nH]2)cc1 | -3.84%
59 | O=C(O)Cc1sc(Nc2ccccc2)nc1-c1ccccc1 | 9.41%
60 | CCN(CC)c1ccc2c(c1)oc(=O)c1c(Cl)cc(=O)oc12 | active: 51.4%
61 | COc1ccc(S(=O)(=O)NCCS(=O)(=O)N2CCN(c3ccccc3)CC2)cc1C | 19.5%
62 | COc1ccc(Br)cc1CNC(=O)CCSCc1ccc(C)cc1 | -22.5%
63 | O=C(Cn1cc(S(=O)(=O)c2ccccc2)c(=O)c2cc3c(cc21)OCO3)Nc1ccc(Cl)cc1 | -4.24%
64 | Cc1ccc(S(=O)(=O)N2CCN(Cc3nc4ccc(C)cc4o3)CC2)cc1 | -4.83%
65 | CCNc1cc(N2CCN(C3CCCCC3)CC2)c2noc3c2c1C(=O)c1ccccc1-3 | -9.75%
66 | CCOC(=O)CSc1nc2ccccc2c(=O)n1-c1cccc(C)c1 | -14.1%
67 | CSc1ccc(CCNC(=O)c2ccc(-c3nc(COc4ccc(C)cc4)c(C)o3)cc2)cc1 | 5.67%
68 | COc1ccc(NC(=O)CCc2nnc3n(Cc4ccccc4Cl)c(=O)c4ccccc4n23)cc1 | -1.67%
69 | Cc1ccc2nc(-c3ccc(Cl)c(NC(=O)COc4ccc(C(C)C)cc4)c3)oc2c1 | 1.31%
70 | Cc1ccc(C)c(NC(=O)C2CCCN(S(=O)(=O)c3cn(C)cn3)C2)c1 (configuration not stated) | 6.52%
71 | COc1ccc(N2CCN(Cc3cccn3-c3nnc(N4CCN(C5CCCCC5)CC4)s3)CC2)cc1 | 16.1%
72 | Cc1nc(SC(C)C(=O)Nc2ccccc2Cl)cc(-c2ccccc2)n1 (configuration not stated) | -1.09%
73 | CCn1cc(C(=O)N2CCN(c3cc(C)ccc3C)CC2)c(=O)c2cc(S(=O)(=O)N3CCCCC3)ccc21 | -1.79%
74 | CCOc1ccc(-n2nc(CO)c(C(=O)NCc3cccs3)n2)cc1 | 12%
75 | COC(=O)c1ccc(CSc2ccccc2C)o1 | active: 34.1%

Row | Compound | inhibition
76 | CC(Oc1ccc(Br)cc1)C(=O)Nc1ncn[nH]1 (configuration not stated) | 18%
77 | Cc1cc(N2CCN(c3cccc(C(F)(F)F)c3)CC2)n2nc(-c3ccccc3)nc2n1 | -1.56%
78 | CCc1cccc(C)c1NC(=O)CCn1c(=O)c2cccn2c2ccccc21 | -6.12%
79 | CCCN1C2CCCC1CC(NC(=O)c1ccccc1)C2 (configuration not stated) | active: 30.1%
80 | Cc1ccc(NS(=O)(=O)c2cc3[nH]c(=O)c(=O)[nH]c3cc2C)cc1Cl | 7.17%
81 | CCOc1ccc(C(=O)Nc2c(C(=O)N3CCN(c4ccccc4F)CC3)oc3ccccc23)cc1 | 1.66%
82 | Cc1ccc(NC(=O)N2CC3CCCN3c3ccccc32)c(C)c1 (configuration not stated) | 13.8%
83 | Cc1ccc(-c2cc(C(=O)N(Cc3ccc(C(C)(C)C)cc3)Cc3ccco3)no2)cc1 | -5.29%
84 | Nc1[nH]nc2ncc3cc4ccccc4nc3c12 | active: 59.5%
85 | COc1ccc(NC(=O)c2ccco2)cc1NC(=O)COc1ccc(Cl)c(C)c1 | 12.4%
86 | CC1CCCC(C)N1C(=O)Cn1cc(/C=C2/C(=O)Nc3ccccc32)c2ccccc21 (configuration not stated) | active: 32.3%
87 | CN(C)c1ccc(-c2nc(-c3ccco3)no2)cc1[N+](=O)[O-] | -13.2%
88 | CCN(CC)S(=O)(=O)c1ccc2c(c1)N(CC(=O)N1CCN(c3cccc(OC)c3)CC1)C(=O)CO2 | -1.58%
89 | Cc1c(Nc2nc3ccccc3n3c(C)nnc23)cccc1C(=O)O | -9.98%
90 | Cc1ccc(Cl)cc1-n1ncc2c(NCCCc3ccccc3)ncnc21 | 7.55%
91 | CCc1nonc1NC(=O)c1oc2ccc(C)cc2c1C | -3.02%
92 | CCCn1c(SCC(=O)NCc2ccco2)nnc1C(C)C | active: 46.5%
93 | CCOc1ccc(N2C(=O)c3n[nH]c(-c4cccs4)c3C2c2cccc(F)c2)cc1 (configuration not stated) | -11%
94 | COc1ccc(-c2cc(-c3ccc4c(c3)NC(=O)CO4)nc3c2COc2ccc(F)cc2-3)cc1 | 1.43%
95 | CCOC(=O)c1ccc(-n2c(-c3ccc(C)cc3)c(C)n3c4c(=O)n(C)c(=O)n(C)c4nc23)cc1 | 4.65%
96 | Cc1nc2oc3ccccc3c(=O)c2c(=O)n1Cc1ccccc1 | active: 31.1%
97 | O=C(C1CC1)N1CCc2cc(Br)cc(S(=O)(=O)N3CCN(c4ccccn4)CC3)c21 | active: 46.4%
